Results: PubChem BioAssay AID463173 (ICCB-Longwood Screening Facility, Harvard Medical School, 2010)
The whole screen tested about 52,000 compounds, of which about 4,300 (8.3%) were called active. No stated cut-off is given here; in the data, active means survival mostly below about 52% (no sharp cut-off); inactive means mostly above about 56%. This is one part of the list.

These compounds were tested on DeltatarO mutant (assay: growth inhibition of S. aureus wild type versus tarO mutant, primary screen, teichoic acid synthesis inhibitors, RN4220, OD600 (AID 463173)). Settings: OD600, 18 h, stronger effect = lower value, screened at 18.75 µg/mL (by protocol).

| Structure (SMILES) | survival |
| --- | --- |
| O=C(CSc1cn(CC(=O)N2CCCCCC2)c2ccccc12)Nc1ccccc1F | inactive: 77% |
| COc1ccc(CCNC(=O)c2cc(-c3ccccc3)nc3ccccc23)cc1OC | inactive: 58% |
| COC(=O)c1scc(-c2ccc(C)cc2)c1S(=O)(=O)Nc1cccc(C(F)(F)F)c1 | inactive: 122% |
| CCn1cc(C(=O)OCC(=O)Nc2cc(C)cc(C)c2)c(=O)c2ccc(C)nc21 | inactive: 64% |
| COc1ccc(-c2nc(-c3ccccc3)c(-c3ccccc3)[nH]2)cc1Br | inactive: 59% |
| Cc1cc(C)cc(NC(=O)Cn2c(=O)oc3cc(S(=O)(=O)N4CCCC4)ccc32)c1 | inactive: 142% |
| O=S(=O)(c1ccc2ccccc2c1)n1nc(-c2ccco2)nc1NCc1cccc(Cl)c1 | inactive: 79% |
| Cc1ccc(CNC(=O)c2ccc3c(c2)N(Cc2ccccc2F)C(=O)c2ccccc2S3(=O)=O)cc1 | inactive: 74% |
| COc1cccc(CNC(=O)c2cnc(N3CCCC3)nc2C)c1 | inactive: 67% |
| COc1ccc(S(=O)(=O)c2cn(C)c3cc(N4CCCC4)c(F)cc3c2=O)cc1 | inactive: 94% |
| COC(=O)CNC(=O)C(Cc1ccccc1)NS(=O)(=O)c1ccc2c(c1)c(=O)n(C)c(=O)n2C (stereo unspecified) | inactive: 87% |
| CCN(C(=O)C1CCN(S(=O)(=O)c2ccc3c(c2)CCCN3C(=O)C2CCC2)CC1)c1cccc(C)c1 | inactive: 90% |
| Cc1c(Cl)cccc1NC(=O)c1cnc2sc(N3CCCC3)nn2c1=O | inactive: 95% |
| COCCN1Cc2cccc(C(=O)Nc3ccc(C)cc3C)c2C1=O | inactive: 87% |
| COc1ccc(CCCc2n[nH]c(=S)o2)c(C)c1 | inactive: 94% |
| Cc1cc2c(cc1S(=O)(=O)N1CCC(C)CC1)OCC(=O)N2 | inactive: 94% |
| Cc1c(C(=O)NCc2ccc(N(C)C)cc2)oc2c1-c1nn(Cc3cccc(Cl)c3)cc1CC2 | inactive: 69% |
| COc1cc(NC(=O)c2nnn(CC(=O)Nc3ccccc3)c2N)cc(OC)c1 | inactive: 85% |
| Cc1ccc2nc(-c3ccc(NC(=O)COc4c(C)ccc(C)c4C)cc3)sc2c1 | active: 38% |
| Cc1c(C(=O)O)nnn1-c1ccccc1 | inactive: 92% |
| O=C(NC1CCCCC1)c1ccc2c(c1)N(Cc1ccccc1)C(=O)c1ccccc1S2 | active: 46% |
| O=C(CN1C(=O)C2(SCC(=O)N2c2ccccc2)c2ccccc21)NCc1ccccc1Cl (stereo unspecified) | inactive: 90% |
| COc1ccc(S(=O)(=O)N2C3CCC2CC(NC(=O)NC2CCCCC2)C3)cc1 (stereo unspecified) | inactive: 90% |

| Structure (SMILES) | survival |
| --- | --- |
| CSc1nc(-c2ccc(F)cc2)nc2c1Cc1c(CO)cnc(C)c1O2 | inactive: 59% |
| CCCc1nn2c(=O)cc(COC(=O)c3ccc(NC(=O)C(C)Oc4ccccc4)cc3)nc2s1 (stereo unspecified) | inactive: 74% |
| c1ccc(C2=NN3COc4ccccc4C3C2)cc1 (stereo unspecified) | inactive: 87% |
| CCCCNc1nc(Oc2ccc(=O)n(C)n2)nc(N(C)C)n1 | inactive: 79% |
| Cc1ccc(C(C(=O)NC2CC2)N(C(=O)Cn2nnc(-c3cccs3)n2)c2cnc3ccccc3c2)o1 (stereo unspecified) | inactive: 88% |
| O=C1SCC(c2ccccc2)S1 (stereo unspecified) | inactive: 78% |
| O=C(O)c1cc(C2CC2)on1 | inactive: 92% |
| CCOc1ccc(CCNC(=O)Cn2nnc(-c3ccc(OC)c(OC)c3)n2)cc1OCC | inactive: 65% |
| CN1CCN(C(CNC(=O)C(=O)Nc2ccc(F)cc2F)c2ccc3c(c2)OCO3)CC1 (stereo unspecified) | inactive: 93% |
| CC(C)Oc1ccc(CNS(=O)(=O)c2cnc(N)nc2)cc1 | inactive: 115% |
| CCOc1cc(CNCCSc2nnnn2-c2ccccc2)cc(Cl)c1OC | inactive: 77% |
| Cc1c(Cl)cccc1NC(=O)CCn1c(=O)c2cccn2c2ccccc21 | inactive: 49% |
| Cc1ccc2c(CC(=O)Nc3ccccc3C(F)(F)F)coc2c1C | inactive: 96% |
| CC(CNC(=O)C1CCN(Cc2cc3ccccc3n2Cc2ccccc2)CC1)c1ccccc1 (stereo unspecified) | active: 47% |
| CCOc1ccccc1NC(=O)CSc1nccn1-c1ccc(Cl)cc1 | inactive: 85% |
| O=C(Nc1ccccc1Cl)c1cnsn1 | inactive: 90% |
| COc1ccc(C(=O)c2cn(Cc3ccc(C)cc3)c3cc4c(cc3c2=O)OCO4)cc1 | inactive: 107% |
| COc1ccccc1-c1noc(CSc2nc3ccc(C)cc3[nH]2)n1 | inactive: 102% |
| O=C(CSc1cn(CC(=O)N2CCCCC2)c2ccccc12)Nc1ccccc1F | active: 70% |
| COc1cc(NC(=O)CCS(=O)(=O)c2nc(-c3cccs3)cc(C(F)(F)F)n2)cc(OC)c1OC | inactive: 84% |
| CS(=O)(=O)N(CC(=O)NCCSc1ccccc1)c1cc(C(F)(F)F)ccc1Cl | inactive: 56% |
| Oc1c(Br)cc(Br)cc1-c1nc2ccccc2s1 | inactive: 126% |
| COc1cccc(C2C(C(=O)Nc3ccccc3)=C(C)Nc3nc(-c4ccccc4)nn32)c1 (stereo unspecified) | active: 57% |

| Structure (SMILES) | survival |
| --- | --- |
| CS(=O)(=O)N(CCc1ccccc1)CC(=O)N1CCOCC1 | inactive: 97% |
| CCc1ccc(OC(C)C(=O)Nc2c(C(=O)c3ccccc3)oc3ccccc23)cc1 (stereo unspecified) | inactive: 38% |
| COc1ccc(Cl)cc1NC(=O)c1cc2c(s1)-c1ccccc1OC2 | inactive: 74% |
| COCCNC(=O)CCc1nc2cccnc2n1Cc1ccc(OC)cc1 | inactive: 137% |
| CC(=O)c1ccc(N2CCN(C(=O)c3cc4cc5cc(C)ccc5nc4s3)CC2)cc1 | inactive: 93% |
| CCN(CC)c1cc(C)c2cc(NC(=O)/C=C/c3ccc(C)cc3)ccc2n1 | inactive: 43% |
| Cc1ccc(C)c(NC(=O)C2CCCN(S(=O)(=O)c3ccc4[nH]c(=O)ccc4c3)C2)c1 (stereo unspecified) | inactive: 83% |
| Cc1ccc(C(=O)c2oc3ccccc3c2NC(=O)c2cc(-c3ccccc3)on2)cc1F | inactive: 86% |
| CCCN(CCC)C(=O)C1CCCN(S(=O)(=O)c2ccc3c(c2)oc(=O)n3C)C1 (stereo unspecified) | inactive: 92% |
| Cc1ccc(-c2nc(CS(=O)CC(=O)N3CCN(c4ccccc4)CC3)c(C)o2)cc1 (stereo unspecified) | inactive: 62% |
| COc1ccc(-c2noc(-c3ccc(NC4CCCC4)c([N+](=O)[O-])c3)n2)cc1 | inactive: 108% |
| O=C(Nc1ccccc1-c1ccccc1)NC1CCN(CC(=O)N2CCOCC2)CC1 | inactive: 73% |
| CC1CCc2c(sc(NC(=O)COc3ccccc3)c2C(=O)Nc2ccccc2Cl)C1 (stereo unspecified) | inactive: 190% |
| CC(NC(=O)Cc1ccccc1)c1ccccc1 (stereo unspecified) | inactive: 82% |
| Cc1ccc(CSCC(=O)N2CCN(c3cc(Cl)ccc3C)CC2)cc1 | inactive: 75% |
| Cc1ccc(-n2nc(C(=O)NCCN(C)C)c(=O)n(C)c2=O)cc1 | inactive: 87% |
| O=C(Nc1ccc(SC(F)F)cc1)c1cc(-c2ccc3c(c2)OCCO3)on1 | inactive: 49% |
| COCCCNc1c2c(nc3ccccc13)CCC2 | inactive: 125% |
| Cc1noc(Cn2c(=O)c3cc4c(cc3n(CC(=O)Nc3cccc(Cl)c3)c2=O)OCO4)n1 | inactive: 122% |
| CCOc1ccc(CNC(=O)c2c(C)nn(-c3ccc(F)cc3)c2-n2cccc2)cc1 | inactive: 120% |
| CC(=O)Nc1nonc1-c1nnc(SCC(=O)Nc2ccc(C)cc2C)n1C | inactive: 50% |
| COc1cccc(CNC(=O)c2cc(=O)[nH]c3ccc(S(=O)(=O)N4CCCCC4)cc23)c1 | inactive: 58% |
| Cc1ccc2nc(C(=O)O)c(C(=O)O)nc2c1 | inactive: 77% |

| Structure (SMILES) | survival |
| --- | --- |
| COc1ccccc1CNC(=O)c1ccc2c(c1)sc1nc(-c3ccc(F)cc3)cn12 | inactive: 63% |
| CC(C)C(=O)OC1=CN(Cc2ccccc2)S(=O)(=O)c2ccccc21 | inactive: 73% |
| Cc1cccc(C)c1Nc1c(-c2ccc(Cl)s2)nc2ncccn12 | inactive: 103% |
| Cc1ccc(Cl)cc1NC(=O)CN(C)S(=O)(=O)c1ccc2c(c1)n(C)c(=O)c(=O)n2C | inactive: 87% |
| COc1ccc(C2C(C(N)=O)=C(C)Nc3nc(-c4ccccc4Cl)nn32)cc1 (stereo unspecified) | inactive: 88% |
| Cc1[nH]c2ccccc2c1C(=O)C(=O)NC1CC(=O)N(c2cccc(F)c2)C1 (stereo unspecified) | inactive: 83% |
| Cc1ccc2oc(C(=O)N(Cc3ccccc3F)C3CCS(=O)(=O)C3)c(C)c2c1 (stereo unspecified) | inactive: 68% |
| COc1cccc(NC(=O)CC2C(=O)OCCN2Cc2ccccc2)c1 (stereo unspecified) | inactive: 199% |
| Cc1ccc(S(=O)(=O)N2CCN(C(=O)CN3CCOCC3)C2C(C)C)cc1 (stereo unspecified) | inactive: 87% |
| O=C(CSc1nc2c(cnn2-c2ccc(F)cc2)c(=O)[nH]1)Nc1ccc(Br)cc1 | inactive: 60% |
| Cn1c(=O)[nH]c(=O)c2c1nc1n(CCO)c(-c3ccccc3)cn21 | inactive: 82% |
| Cc1ccc(-c2nn(CC(=O)NC3CCCCC3)c3c2cnc2ccc(F)cc23)cc1C | active: 0% |
| CCOc1cccc2cc(-c3nnc(Nc4ccc(F)c(Cl)c4)s3)c(=O)oc12 | inactive: 71% |
| Cc1ccc(CSc2nc3cccnc3n2Cc2ccc(C(=O)NC3CCCCC3)cc2)cc1 | inactive: 79% |
| CCCOc1ccc(C2c3c(oc4ccc(F)cc4c3=O)C(=O)N2CCc2ccc(OC)cc2)cc1 (stereo unspecified) | inactive: 78% |
| O=C(CSc1oc(-c2ccc(F)cc2)nc1S(=O)(=O)c1ccc(Br)cc1)NC1CCCCC1 | inactive: 64% |
| CC(=O)Nc1nonc1-c1nnc(SCC(=O)Nc2ccc(C)c(Cl)c2)n1C | active: 60% |
| CCOc1ccc2c(c1)c(=O)c(S(=O)(=O)c1ccc(C)cc1)cn2Cc1ccccc1Cl | inactive: 82% |
| CCN1CCN(c2ncnc3c2cnn3-c2cc(Cl)ccc2C)CC1 | inactive: 126% |
| Cc1cc(C)n(CC(=O)n2c3ccccc3c3ccccc32)n1 | inactive: 78% |
| CC1CCN(S(=O)(=O)c2csc(C(N)=O)c2)CC1 | inactive: 85% |
| COc1ccccc1N1CCN(c2ncnc3c2c(-c2ccccc2)cn3-c2cccc(C)c2)CC1 | inactive: 70% |
